In the supplement of paper PMC11876631:
± gives the standard deviation of the averaged measurements. Laboratory Escherichia coli strains with one amino-acid change in an essential protein, pooled on minimal glucose agar with carbenicillin or gentamicin at twice the control MIC (plus kanamycin and chloramphenicol for the plasmids), 48 h. Fold change of barcode share against drug-free plates; higher = less susceptible. Active = above 20 in both replicates (the paper's putatively resistant). '<' = one read or none on drug, '>' = one read or none on a drug-free plate. Shares are relative, so most strains fall below 1 when a few take over. Listed are strains with at least 15 reads on both drug-free plates, and hits; most hits rest on fewer reference reads. Replicate rank correlation about 0.5. Edits are read from barcodes.

B1: dnaA I59D (protein)
chain: MSLSLWQQCLARLQDELPATEFSMWIRPLQAELSDNTLALYAPNRFVLDWVRDKYLNNDNGLLTSFCGADAPQLRFEVGTKPVTQTPQAAVTSNVAAPAQVAQTQPQRAAPSTRSGWDNVPAPAEPTYRSNVNVKHTFDNFVEGKSNQLARAAARQVADNPGGAYNPLFLYGGTGLGKTHLLHAVGNGIMARKPNAKVVYMHSERFVQDMVKALQNNAIEEFKRYYRSVDALLIDDIQFFANKERSQEEFFHTFNALLEGNQQIILTSDRYPKEINGVEDRLKSRFGWGLTVAIEPPELETRVAILMKKADENDIRLPGEVAFFIAKRLRSNVRELEGALNRVIANANFTGRAITIDFVREALRDLLALQEKLVTIDNIQKTVAEYYKIKVADLLSKRRSRSVARPRQMAMALAKELTNHSLPEIGDAFGGRDHTTVLHACRKIEQLREESHDIKEDFSNLIRTLSS
B2: dnaA I59P (protein)
chain: MSLSLWQQCLARLQDELPATEFSMWIRPLQAELSDNTLALYAPNRFVLDWVRDKYLNNPNGLLTSFCGADAPQLRFEVGTKPVTQTPQAAVTSNVAAPAQVAQTQPQRAAPSTRSGWDNVPAPAEPTYRSNVNVKHTFDNFVEGKSNQLARAAARQVADNPGGAYNPLFLYGGTGLGKTHLLHAVGNGIMARKPNAKVVYMHSERFVQDMVKALQNNAIEEFKRYYRSVDALLIDDIQFFANKERSQEEFFHTFNALLEGNQQIILTSDRYPKEINGVEDRLKSRFGWGLTVAIEPPELETRVAILMKKADENDIRLPGEVAFFIAKRLRSNVRELEGALNRVIANANFTGRAITIDFVREALRDLLALQEKLVTIDNIQKTVAEYYKIKVADLLSKRRSRSVARPRQMAMALAKELTNHSLPEIGDAFGGRDHTTVLHACRKIEQLREESHDIKEDFSNLIRTLSS
B3: dnaA V51A (protein)
chain: MSLSLWQQCLARLQDELPATEFSMWIRPLQAELSDNTLALYAPNRFVLDWARDKYLNNINGLLTSFCGADAPQLRFEVGTKPVTQTPQAAVTSNVAAPAQVAQTQPQRAAPSTRSGWDNVPAPAEPTYRSNVNVKHTFDNFVEGKSNQLARAAARQVADNPGGAYNPLFLYGGTGLGKTHLLHAVGNGIMARKPNAKVVYMHSERFVQDMVKALQNNAIEEFKRYYRSVDALLIDDIQFFANKERSQEEFFHTFNALLEGNQQIILTSDRYPKEINGVEDRLKSRFGWGLTVAIEPPELETRVAILMKKADENDIRLPGEVAFFIAKRLRSNVRELEGALNRVIANANFTGRAITIDFVREALRDLLALQEKLVTIDNIQKTVAEYYKIKVADLLSKRRSRSVARPRQMAMALAKELTNHSLPEIGDAFGGRDHTTVLHACRKIEQLREESHDIKEDFSNLIRTLSS
B4: adk L6A (protein)
chain: MRIILAGAPGAGKGTQAQFIMEKYGIPQISTGDMLRAAVKSGSELGKQAKDIMDAGKLVTDELVIALVKERIAQEDCRNGFLLDGFPRTIPQADAMKEAGINVDYVLEFDVPDELIVDRIVGRRVHAPSGRVYHVKFNPPKVEGKDDVTGEELTTRKDDQEETVRKRLVEYHQMTAPLIGYYSKEAEAGNTKYAKVDGTKPVAEVRADLEKILG
B5: adk L6Q (protein)
chain: MRIILQGAPGAGKGTQAQFIMEKYGIPQISTGDMLRAAVKSGSELGKQAKDIMDAGKLVTDELVIALVKERIAQEDCRNGFLLDGFPRTIPQADAMKEAGINVDYVLEFDVPDELIVDRIVGRRVHAPSGRVYHVKFNPPKVEGKDDVTGEELTTRKDDQEETVRKRLVEYHQMTAPLIGYYSKEAEAGNTKYAKVDGTKPVAEVRADLEKILG
B6: dnaC L131A (protein)
chain: MKNVGDLMQRLQKMMPAHIKPAFKTGEELLAWQKEQGAIRSAALERENRAMKMQRTFNRSGIRPLHQNCSFENYRVECEGQMNALSKARQYVEEFDGNIASFIFSGKPGTGKNHLAAAICNELLLRGKSVAIITVADIMSAMKDTFRNSGTSEEQLLNDLSNVDLLVIDEIGVQTESKYEKVIINQIVDRRSSSKRPTGMLTNSNMEEMTKLLGERVMDRMRLGNSLWVIFNWDSYRSRVTGKEY
B7: dnaC L131W (protein)
chain: MKNVGDLMQRLQKMMPAHIKPAFKTGEELLAWQKEQGAIRSAALERENRAMKMQRTFNRSGIRPLHQNCSFENYRVECEGQMNALSKARQYVEEFDGNIASFIFSGKPGTGKNHLAAAICNELLLRGKSVWIITVADIMSAMKDTFRNSGTSEEQLLNDLSNVDLLVIDEIGVQTESKYEKVIINQIVDRRSSSKRPTGMLTNSNMEEMTKLLGERVMDRMRLGNSLWVIFNWDSYRSRVTGKEY

The proteins below were run against Escherichia coli (laboratory strain) (assay: barcode share on antibiotic plates over drug-free plates; higher = less susceptible). Details: antibiotic: carbenicillin; 2× MIC (3.1 µg/mL).
Description: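 A pool of E. coli strains, each edited to carry one amino-acid change in an essential protein, was grown for 48 h on minimal glucose agar with or without antibiotic; strain barcodes were sequenced; mean of two replicates.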

Question: With B1 as the protein, how does the “fold change of barcode share” value read?
Answer: 0.337 ± 0.017

Question: B2 was tested. Which “fold change of barcode share” value did it give?
Answer: 0.39 ± 0.3

Question: For B3, which “fold change of barcode share” value is on record?
Answer: 0.623 ± 0.37

Question: For B4, which “fold change of barcode share” value is on record?
Answer: 0.518 ± 0.25

Question: How did the “fold change of barcode share” value turn out when B5 was run?
Answer: 0.714 ± 0.55

Question: Which “fold change of barcode share” value does the source give for B6 here?
Answer: 0.41 ± 0.014

Question: B7 was tested. Which “fold change of barcode share” value did it give?
Answer: 0.462 ± 0.2

Same assay, conditions: antibiotic: gentamicin; 2× MIC (MIC 0.45 µg/mL)

Question: B1 was tested. Which “fold change of barcode share” value did it give?
Answer: < 0.00922

Question: For B2, which “fold change of barcode share” value is on record?
Answer: < 0.0122

Question: B3 was tested. Which “fold change of barcode share” value did it give?
Answer: 0.0292 ± 0.036

Question: Which “fold change of barcode share” value does the source give for B4 here?
Answer: < 0.0025

Question: How did the “fold change of barcode share” value turn out when B5 was run?
Answer: 0.00835 ± 0.0053

Question: How did the “fold change of barcode share” value turn out when B6 was run?
Answer: < 0.00524

Question: Which “fold change of barcode share” value does the source give for B7 here?
Answer: < 0.00675
